Experimental data reported in patent CN117603358A (INST MICROBIOLOGY CAS; 3SBIO GROUP; SHANXI ADVANCED …, dated 2024).

Columns and labels:
Assay in all cases: cell-based or functional assay
S蛋白, SARS-CoV-2 EG.5突变株 = S蛋白, SARS-CoV-2 EG.5突变株 (SARS-CoV-2 EG.5)
S蛋白, SARS-CoV-2 Delta = S蛋白, SARS-CoV-2 Delta (SARS-CoV-2 Delta)
S蛋白, SARS-CoV-2 BA.2.75 [1] = molecular target: T1, S蛋白, SARS-CoV-2 BA.2.75 (SARS-CoV-2 BA.2.75)
S蛋白, SARS-CoV-2 XBB [2] = molecular target: S蛋白, SARS-CoV-2 XBB (SARS-CoV-2 XBB)
S蛋白, SARS-CoV-2 BF.7 [3] = molecular target: S蛋白, SARS-CoV-2 BF.7 (SARS-CoV-2 BF.7)
S蛋白, SARS-CoV-2 BQ.1.1 [4] = molecular target: S蛋白, SARS-CoV-2 BQ.1.1 (SARS-CoV-2 BQ.1.1)
S蛋白, SARS-CoV-2 BQ.1 [5] = molecular target: S蛋白, SARS-CoV-2 BQ.1 (SARS-CoV-2 BQ.1)
S蛋白, SARS-CoV-2 BA.4/5 [6] = molecular target: S蛋白, SARS-CoV-2 BA.4/5 (SARS-CoV-2 BA.4/5)
S蛋白, SARS-CoV-2 XBB.1.5 [7] = molecular target: T2, S蛋白, SARS-CoV-2 XBB.1.5 (SARS-CoV-2 XBB.1.5)
S蛋白, SARS-CoV-2 BA.1 [8] = molecular target: S蛋白, SARS-CoV-2 BA.1 (SARS-CoV-2 BA.1)
S蛋白, SARS-CoV-2 BA.2.75 [9] = molecular target: T1, S蛋白, SARS-CoV-2 BA.2.75; remark: listed apart in the source
S蛋白, SARS-CoV-2 XBB [10] = molecular target: S蛋白, SARS-CoV-2 XBB (SARS-CoV-2 XBB); remark: listed apart in the source
S蛋白, SARS-CoV-2 BF.7 [11] = molecular target: S蛋白, SARS-CoV-2 BF.7 (SARS-CoV-2 BF.7); remark: listed apart in the source
S蛋白, SARS-CoV-2 BA.3 = S蛋白, SARS-CoV-2 BA.3 (SARS-CoV-2 BA.3)
S蛋白, SARS-CoV-2 BA.1.1 = S蛋白, SARS-CoV-2 BA.1.1 (SARS-CoV-2 BA.1.1)
S蛋白, SARS-CoV-2 BQ.1.1 [12] = molecular target: S蛋白, SARS-CoV-2 BQ.1.1 (SARS-CoV-2 BQ.1.1); remark: listed apart in the source
S蛋白, SARS-CoV-2 BQ.1 [13] = molecular target: S蛋白, SARS-CoV-2 BQ.1 (SARS-CoV-2 BQ.1); remark: listed apart in the source
S蛋白, SARS-CoV-2 BA.2 = S蛋白, SARS-CoV-2 BA.2 (SARS-CoV-2 BA.2)
S蛋白, SARS-CoV-2 XBB.1.16 = S蛋白, SARS-CoV-2 XBB.1.16 (SARS-CoV-2 XBB.1.16)
S蛋白, SARS-CoV-2 BA.4/5 [14] = molecular target: S蛋白, SARS-CoV-2 BA.4/5 (SARS-CoV-2 BA.4/5); remark: listed apart in the source
S蛋白, SARS-CoV-2 XBB.1.5 [15] = molecular target: T2, S蛋白, SARS-CoV-2 XBB.1.5; remark: listed apart in the source
S蛋白, SARS-CoV-2 BA.1 [16] = molecular target: S蛋白, SARS-CoV-2 BA.1 (SARS-CoV-2 BA.1); remark: listed apart in the source

B1: 双特异性抗体蛋白DIA-19 (bispecific antibody)
chain: QITLKESGPTLVKPTQTLTLTCTFSGFSLSTSGVGVAWIRQPPGKALEWLALIYWDNDKRSSPSLNNRLTITKDTSKNQVVLTMTNMDPEDTATYYCAHFFSHYDSSNYYYGSWFDPWGQGTLVTVSSGGGGSGGGGS[letters of about 100 residues omitted]FTFGPGTKVDIKGGGGSGGGGSGGGGSGGGGSGGGGSEVQLVESGGGVVQPGGSLRLSCAVSGFTFDDYAMHWVRQAPGKGLDWVSLISGDGSYTYYADSVKGRFTISRDSSKNSLYLQMNSLRTEDTALYYCAKAQTPTLWWLQDAFDIWGQGTMVTVSSGGGGSGGGGSEIVLTQSPGTLSLSPGERATLSCRASQSFDSRYLGWYQQKSGQAPRLLIYGASSRATGIPDRFSGSGSGTDFTLTISRLEPEDFAVYYCQQFGDSPFTFGQGTKLEIKGGGGS[letters of human IgG1 Fc with changes omitted]
假病毒中和效果 IC50 (S蛋白, SARS-CoV-2 EG.5突变株): 1.15 ng/mL | 假病毒中和活性 IC50 (S蛋白, SARS-CoV-2 Delta): 1.34 ng/mL | 假病毒中和活性 IC50 (S蛋白, SARS-CoV-2 BA.2.75 [1]): 1.76 ng/mL | 假病毒中和活性 IC50 (S蛋白, SARS-CoV-2 XBB [2]): 1.94 ng/mL | 假病毒中和活性 IC50 (S蛋白, SARS-CoV-2 BF.7 [3]): 1.19 ng/mL | 假病毒中和活性 IC50 (S蛋白, SARS-CoV-2 BQ.1.1 [4]): 46.6 ng/mL | 假病毒中和活性 IC50 (S蛋白, SARS-CoV-2 BQ.1 [5]): 6.82 ng/mL | 假病毒中和活性 IC50 (S蛋白, SARS-CoV-2 BA.4/5 [6]): 0.859 ng/mL | 假病毒中和活性 IC50 (S蛋白, SARS-CoV-2 XBB.1.5 [7]): 1.66 ng/mL | 假病毒中和活性 IC50 (S蛋白, SARS-CoV-2 BA.1 [8]): 0.423 ng/mL | 假病毒中和效果 IC50 (S蛋白, SARS-CoV-2 BA.2.75 [9]): 1.01 ng/mL | 假病毒中和效果 IC50 (S蛋白, SARS-CoV-2 XBB [10]): 0.652 ng/mL | 假病毒中和效果 IC50 (S蛋白, SARS-CoV-2 BF.7 [11]): 0.451 ng/mL | 假病毒中和效果 IC50 (S蛋白, SARS-CoV-2 BA.3): 0.311 ng/mL | 假病毒中和效果 IC50 (S蛋白, SARS-CoV-2 BA.1.1): 0.182 ng/mL | 假病毒中和效果 IC50 (S蛋白, SARS-CoV-2 BQ.1.1 [12]): 7.51 ng/mL | 假病毒中和效果 IC50 (S蛋白, SARS-CoV-2 BQ.1 [13]): 3.14 ng/mL | 假病毒中和效果 IC50 (S蛋白, SARS-CoV-2 BA.2): 0.377 ng/mL | 假病毒中和效果 IC50 (S蛋白, SARS-CoV-2 XBB.1.16): 0.72 ng/mL | 假病毒中和效果 IC50 (S蛋白, SARS-CoV-2 BA.4/5 [14]): 0.332 ng/mL | 假病毒中和效果 IC50 (S蛋白, SARS-CoV-2 XBB.1.5 [15]): 0.899 ng/mL | 假病毒中和效果 IC50 (S蛋白, SARS-CoV-2 BA.1 [16]): 0.272 ng/mL
